Reference: PMC4336329 (PLoS ONE, 2015)
Screen size: about 310,000 compounds; about 2,200 (0.71%) showed an effect of 50% or more. The effect is printed as a negative number. This is one part of the list.

Target: human ether-à-go-go-related gene (hERG) potassium channel (human, UniProt Q12809)
Assay: primary screen, population patch clamp on CHO cells stably expressing hERG

human ether-à-go-go-related gene (hERG) potassium channel, sequence (Q12809 whole entry, looked up): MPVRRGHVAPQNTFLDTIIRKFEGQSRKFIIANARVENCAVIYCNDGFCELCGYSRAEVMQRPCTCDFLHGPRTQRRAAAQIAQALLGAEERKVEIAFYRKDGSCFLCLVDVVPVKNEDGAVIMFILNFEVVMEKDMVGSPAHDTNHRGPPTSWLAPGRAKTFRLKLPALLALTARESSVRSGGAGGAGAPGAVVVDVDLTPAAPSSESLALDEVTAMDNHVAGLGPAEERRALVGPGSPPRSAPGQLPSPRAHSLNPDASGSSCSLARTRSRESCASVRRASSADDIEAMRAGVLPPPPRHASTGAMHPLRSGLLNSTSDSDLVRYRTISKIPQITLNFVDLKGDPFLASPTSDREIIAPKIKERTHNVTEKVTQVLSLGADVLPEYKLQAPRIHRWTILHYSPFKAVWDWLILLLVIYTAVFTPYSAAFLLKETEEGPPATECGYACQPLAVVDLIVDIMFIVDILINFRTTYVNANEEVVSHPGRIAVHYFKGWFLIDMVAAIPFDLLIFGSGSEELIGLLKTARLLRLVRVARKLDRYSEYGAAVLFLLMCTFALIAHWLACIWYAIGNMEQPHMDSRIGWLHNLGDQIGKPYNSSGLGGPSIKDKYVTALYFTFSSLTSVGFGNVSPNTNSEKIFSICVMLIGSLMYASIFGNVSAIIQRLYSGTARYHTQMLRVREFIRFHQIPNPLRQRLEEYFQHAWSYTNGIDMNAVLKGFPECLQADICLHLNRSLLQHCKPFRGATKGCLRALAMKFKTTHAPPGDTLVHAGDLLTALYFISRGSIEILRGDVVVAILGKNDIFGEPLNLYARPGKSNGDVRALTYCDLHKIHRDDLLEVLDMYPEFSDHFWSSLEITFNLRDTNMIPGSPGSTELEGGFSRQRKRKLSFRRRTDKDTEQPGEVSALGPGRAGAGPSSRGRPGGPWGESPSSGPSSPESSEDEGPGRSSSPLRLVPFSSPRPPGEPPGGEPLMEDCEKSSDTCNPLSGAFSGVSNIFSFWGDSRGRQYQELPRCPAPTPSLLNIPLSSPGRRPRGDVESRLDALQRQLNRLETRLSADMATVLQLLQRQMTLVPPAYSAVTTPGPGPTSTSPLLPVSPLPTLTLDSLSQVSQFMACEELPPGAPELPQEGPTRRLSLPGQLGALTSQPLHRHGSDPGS

First: CC1CCCN(C(=O)COC(=O)Cc2ccc(Cl)cc2)C1 (centres unmarked)
Second: CC1=C(C(=O)NCc2ccc(Cl)cc2)C2(CCC(C)CC2)OC1=O (centres unmarked)
The “hERG current change (%, negative = inhibition) at 1uM” value of the first is higher: 14.4% for the first, 3% for the second.

First: Nc1cc(Cl)ccc1N1CCOCC1
Second: O=C(NN1CCOCC1)c1cccc(Cl)c1
The “hERG current change (%, negative = inhibition) at 1uM” value of the first is higher: 7.51% for the first, 6.61% for the second.

Compared with Cc1ccc(C(=O)C2=C(O)C(=O)N(c3ncccn3)C2c2ccc(F)cc2)o1 (centres unmarked), CC1(c2ccc(OC(F)F)cc2)NC(=O)N(/N=C/c2c(O)ccc3ccccc23)C1=O (centres unmarked) is lower in “hERG current change (%, negative = inhibition) at 1uM” value: 34.4% for the first, 9.49% for the second.

First: CCOC(=O)N1CCN(c2cc(=O)n(C3CCCCC3)c(=O)[nH]2)CC1
Second: CCC(C)NC(=O)CN(C1CCCCC1)S(=O)(=O)c1ccc(F)cc1 (centres unmarked)
The “hERG current change (%, negative = inhibition) at 1uM” value of the first is higher: 11.1% for the first, 9.45% for the second.

First: CCN1c2ccccc2-c2nc3ccccc3n2C1c1ccccn1 (centres unmarked)
Second: Cc1ccccc1-n1c(SCC(=O)Nc2cccc3ccccc23)nc(O)cc1=O
The “hERG current change (%, negative = inhibition) at 1uM” value of the first is lower: -23.4% for the first, 15.9% for the second.

Compared with CCc1ccc(NC(=S)N2CCN(c3cccc(OC)c3)CC2)cc1, CC(=O)c1ccc(N2CCN(C(=S)Nc3ccc(Oc4ccccc4)cc3)CC2)cc1 is lower in “hERG current change (%, negative = inhibition) at 1uM” value: 7.12% for the first, 5.86% for the second.

First: CC1(C)COC2(OC1)C(=O)Nc1ccccc12
Second: CC1(C)CC(=O)C=C(Nc2ccc3c(c2)CCC3)C1
The “hERG current change (%, negative = inhibition) at 1uM” value of the first is higher: 11.2% for the first, 7.82% for the second.

Going from Cl.O=C(CN1C2=NCCN2c2ccccc21)N1CCOCC1 to Cn1c(=O)c2c(SCC(=O)N3CCOCC3)nc(-c3ccccc3Cl)nc2n(C)c1=O, the “hERG current change (%, negative = inhibition) at 1uM” value rises from 7.12% to 8.94%.

Going from COc1ccc(NC(=O)CN2CCN(Cc3ccc4c(c3)OCO4)CC2)cc1OC.O=C(O)C(=O)O to COc1ccc(-n2nnnc2SCC(=O)Nc2ccc3c(c2)OCCO3)cc1OC, the “hERG current change (%, negative = inhibition) at 1uM” value rises from 4.15% to 6.6%.

Compared with COCCCN1CN(Cc2ccccc2)CNC1=S, Clc1ccccc1OCCCCN1CCCCC1 is higher in “hERG current change (%, negative = inhibition) at 1uM” value: 5.8% for the first, 6.87% for the second.

Going from COc1ccc(CN2CC(C(=O)NCCCN3CCN(C)CC3)CC2=O)cc1 (centres unmarked) to CCc1nn(CC(=O)NCCN2CCN(C)CC2)c(=O)c2cc3occc3n12, the “hERG current change (%, negative = inhibition) at 1uM” value rises from 9.04% to 12.1%.

Going from COc1cc(Cl)c(C)cc1NC(=O)CCCN1C(=O)CCC1=O to CCC(=O)Nc1cc2c3c(c1)CCC(=O)N3CCC2, the “hERG current change (%, negative = inhibition) at 1uM” value falls from 1.8% to -4.28%.

First: CCN(CC)c1nc2n(c(=O)n1)CCO2
Second: Cn1c2ccccc2c2nnc(SC3CCOC3=O)nc21 (centres unmarked)
The “hERG current change (%, negative = inhibition) at 1uM” value of the first is higher: 11.8% for the first, 3.35% for the second.

First: NC(=O)NC(=O)CSc1nc(C2CCCCC2)n(-c2ccccc2)n1
Second: C[C@H](NC(=O)[C@@H]1CSC2c3ccccc3C(=O)N21)C(=O)NC1CCCC1 (some centres unmarked)
The “hERG current change (%, negative = inhibition) at 1uM” value of the first is lower: 11.8% for the first, 18.5% for the second.

Compared with COc1ccccc1NS(=O)(=O)c1cc(NC(=O)C(C)(C)C)ccc1N1CCOCC1, COc1ccccc1NC(=O)c1ccc(NC(=O)c2cc3c(s2)CCC3)cc1 is higher in “hERG current change (%, negative = inhibition) at 1uM” value: -4.51% for the first, 17.3% for the second.

Going from Cc1ccccc1NC(=O)COc1cccc2c1CCNC2=O to COc1ccccc1NC1=Nc2cccc3cccc1c23, the “hERG current change (%, negative = inhibition) at 1uM” value rises from 9.18% to 9.51%.

Compared with COc1ccc(Cl)cc1-c1nc(SCC(=O)N(C)C)n[nH]1, COC(=O)c1ccc(OC)c(OC)c1Cl is lower in “hERG current change (%, negative = inhibition) at 1uM” value: 16.7% for the first, 6.44% for the second.

Going from CC(=O)NC(CC(=O)Oc1ccc(C)cc1Br)c1ccccc1 (centres unmarked) to CCCCCN(C(=O)NC(=O)Nc1ccccc1C)S(=O)(=O)c1ccccc1, the “hERG current change (%, negative = inhibition) at 1uM” value rises from 7.85% to 16.4%.

First: COc1ccc(-c2csc(NC(CO)c3nc4ccccc4n3Cc3ccc(C)cc3)n2)cc1 (centres unmarked)
Second: COc1ccc(-c2csc(NC(=O)CSc3nc(C)cs3)n2)cc1
The “hERG current change (%, negative = inhibition) at 1uM” value of the first is higher: 11.4% for the first, 7.73% for the second.

First: Cc1ccc(NC(=O)c2ccc(NS(=O)(=O)/C=C/c3ccccc3)cc2)nc1
Second: Cc1ccc(NS(=O)(=O)c2ccc(C(=O)NCc3cccnc3)cc2)cc1
The “hERG current change (%, negative = inhibition) at 1uM” value of the first is lower: -1.05% for the first, 9.58% for the second.

Compared with Cc1ccc(Cl)cc1NC(=O)C(=O)N1CCCCC1, CC(C)CCN1C(=O)c2ccc(C(=O)N3CCCCC3)cc2C1=O is lower in “hERG current change (%, negative = inhibition) at 1uM” value: 4.49% for the first, 3.62% for the second.

Going from COC(=O)c1ccccc1NC(=O)CN1CCC(n2nnc3cc(F)ccc32)CC1 to O=C(Oc1ccccc1Cl)c1ccc2c(=O)n3c(nc2c1)CCC3, the “hERG current change (%, negative = inhibition) at 1uM” value rises from -2.96% to 13%.

Going from COC(=O)c1cc(S(=O)(=O)N2c3ccccc3CC2C)c[nH]1 (centres unmarked) to COc1cc(C)c(C)cc1S(=O)(=O)N1CCN(Cc2ccccc2)CC1, the “hERG current change (%, negative = inhibition) at 1uM” value falls from 7.2% to 3.77%.

First: CCOc1ccc(C(=O)Oc2cc(C)[nH]c(=O)c2[N+](=O)[O-])cc1
Second: CCOc1ccc(S(=O)(=O)N2CCN(C(=O)CCOc3ccccc3C)CC2)cc1
The “hERG current change (%, negative = inhibition) at 1uM” value of the first is higher: 5.87% for the first, 0.0579% for the second.

Compared with Cc1ccnc(NS(=O)(=O)c2ccc(CC(C)C)cc2)c1, COc1ccc(S(=O)(=O)NCc2ccncc2)cc1NC(=O)c1ccc(Cl)cc1 is lower in “hERG current change (%, negative = inhibition) at 1uM” value: 8.54% for the first, -26.8% for the second.

Compared with Cn1ccc(/C=N/N=C2/NC(=O)CS2)n1, Cc1ccc(/C=N/Nc2nc3ccccc3[nH]2)s1 is lower in “hERG current change (%, negative = inhibition) at 1uM” value: 18.7% for the first, -9.53% for the second.

Compared with COc1ccc(S(=O)(=O)N2CCCC(C(=O)NCC3CCCO3)C2)cc1OC (centres unmarked), COc1ccc(C2/C(=C(/O)c3ccc(Br)cc3)C(=O)C(=O)N2C)cc1OC (centres unmarked) is lower in “hERG current change (%, negative = inhibition) at 1uM” value: 14.7% for the first, 6.24% for the second.

Compared with CC(C)(C)c1nc(NCCN2CCOCC2)c2nnn(Cc3ccccc3Cl)c2n1, CC(C)(C)Cc1nc(-c2ccccn2)no1 is lower in “hERG current change (%, negative = inhibition) at 1uM” value: 22.7% for the first, 6.13% for the second.

Going from CCCCC(=O)Nc1cccc(NC(=O)C(C)C)c1 to CC1(C)Cc2c(sc3nnn(CC(=O)Nc4ccccc4)c(=O)c23)CO1, the “hERG current change (%, negative = inhibition) at 1uM” value falls from 13% to 2.47%.

Compared with CCC1CC(/C(C)=N/NC(N)=O)OC1=O (centres unmarked), COCCOC(=O)C1=C(C)N=C2SCCC(=O)N2C1c1cccs1 (centres unmarked) is higher in “hERG current change (%, negative = inhibition) at 1uM” value: 4.16% for the first, 11.3% for the second.

First: O=C(Nc1ncc([N+](=O)[O-])s1)c1cccc([N+](=O)[O-])c1
Second: O=c1cc(CO)oc(C(Nc2cccc([N+](=O)[O-])c2)c2ccccn2)c1O (centres unmarked)
The “hERG current change (%, negative = inhibition) at 1uM” value of the first is lower: 0.896% for the first, 7.31% for the second.

Going from Cc1cccc(OCc2n[nH]c(=S)n2Cc2ccccc2)c1 to Cc1nc2c(C)[n+](CC(=O)c3ccccc3)ccc2n1C.[Br-], the “hERG current change (%, negative = inhibition) at 1uM” value falls from 16.5% to 16.1%.

Compared with CCCCc1ccc(S(=O)(=O)N2CCC3(CC2)OCCO3)cc1, CCCCc1cc(=O)oc2cc(OCC(=O)N3CCC(C(N)=O)CC3)ccc12 is lower in “hERG current change (%, negative = inhibition) at 1uM” value: 17.5% for the first, 5.53% for the second.

First: CCOc1ccccc1/C=c1\sc2ncnn2c1=O
Second: C=CCn1c(SCC(=O)N2CCc3ccccc3C2)nc2sc(CC)cc2c1=O
The “hERG current change (%, negative = inhibition) at 1uM” value of the first is lower: -21.1% for the first, 10.8% for the second.

Going from O=C(NCCc1c[nH]c2ccccc12)c1ccc([N+](=O)[O-])cc1 to COc1ccc(CCNC(=O)c2ccc(NS(=O)(=O)c3ccc4[nH]c(=O)[nH]c4c3)cc2)cc1, the “hERG current change (%, negative = inhibition) at 1uM” value rises from 1.04% to 9.03%.

First: CC(=C/C(=O)O)/C(=C/c1ccccc1)C(=O)O
Second: Cc1cc(C)n(-c2ccccc2C#N)n1
The “hERG current change (%, negative = inhibition) at 1uM” value of the first is higher: 7.52% for the first, 3.5% for the second.

First: O=C(NCC1CCCO1)c1onc(CSc2cccc3ccccc23)c1C(=O)O (centres unmarked)
Second: COc1ccc(NC(=O)c2c3c(nc4ccccc24)CCC3)cc1
The “hERG current change (%, negative = inhibition) at 1uM” value of the first is higher: 16.9% for the first, 9.52% for the second.

First: C=CCn1c(SCC(=O)N2CCCC2=O)nc2sc(CC)cc2c1=O
Second: CCc1nnc(NC(=O)CSc2nc3ccccc3c(=O)n2CCCOC)s1
The “hERG current change (%, negative = inhibition) at 1uM” value of the first is lower: -20% for the first, 13.4% for the second.

First: Cc1c(O)c(S(=O)(=O)c2ccccc2)c(=O)n(-c2ccccc2)c1-c1ccccc1
Second: Cc1nc(-c2ccccc2)sc1-c1nc(-c2ccncc2)ncc1S(=O)(=O)c1ccccc1
The “hERG current change (%, negative = inhibition) at 1uM” value of the first is lower: 9.12% for the first, 12.3% for the second.

Compared with O=C(NCCNC(=O)c1cccs1)c1ccco1, O=C(NCC1CCCCC1)c1ccco1 is lower in “hERG current change (%, negative = inhibition) at 1uM” value: 19.1% for the first, 15.6% for the second.

Compared with Nc1cc(C(=O)Nc2ccc(Cl)cc2)ccc1N1CC2CC(C1)c1cccc(=O)n1C2 (centres unmarked), O=C(N/N=C/c1cccc(Cl)c1)C1CCCC1 is higher in “hERG current change (%, negative = inhibition) at 1uM” value: -10.9% for the first, 10.6% for the second.

Going from COc1ccc(C2OC3=C(Nc4cc(C)c(C)cc4N3)C2=O)cc1 (centres unmarked) to Cc1ccc2nc(SCC(=O)NCc3ccco3)c(C)cc2c1, the “hERG current change (%, negative = inhibition) at 1uM” value falls from 10.1% to 7.03%.

First: O=C(CCC(=O)Nc1ccccc1Cl)NNC(=O)c1ccccc1[N+](=O)[O-]
Second: O=C(Nc1nc2c(Cl)cccc2s1)c1ccc(Br)o1
The “hERG current change (%, negative = inhibition) at 1uM” value of the first is higher: 5.21% for the first, -5.88% for the second.

Compared with CCCNC(=O)C1CC2Cn3c(nc4ccccc43)C2N1C (centres unmarked), Cc1ccc(N(CC(=O)NC2CCCCC2)C(=O)c2ccc(C)s2)cc1 is lower in “hERG current change (%, negative = inhibition) at 1uM” value: 14.9% for the first, 7.77% for the second.

Compared with Cc1ccc2nc(/C(C#N)=C/c3ccc(-c4cccc([N+](=O)[O-])c4)o3)[nH]c2c1, COC(=O)c1c(-c2cccs2)csc1NC(=O)c1cccnc1 is higher in “hERG current change (%, negative = inhibition) at 1uM” value: 5.05% for the first, 11.6% for the second.

First: CSc1nnc(NC(=O)c2ccco2)s1
Second: O=C(NCc1ccco1)c1sc2cc(F)ccc2c1Cl
The “hERG current change (%, negative = inhibition) at 1uM” value of the first is higher: 15.7% for the first, 5.09% for the second.
